Data taken from paper PMC4336329 (PLoS ONE, 2015).
Among all 310,000 compounds or so, about 2,200 (0.71%) showed an effect of 50% or more. The effect is printed as a negative number. This is one part of the list.

Each compound was assayed against human ether-à-go-go-related gene (hERG) potassium channel (human, UniProt Q12809) (assay: primary screen, population patch clamp on CHO cells stably expressing hERG).
Chain of human ether-à-go-go-related gene (hERG) potassium channel (Q12809 whole entry, looked up): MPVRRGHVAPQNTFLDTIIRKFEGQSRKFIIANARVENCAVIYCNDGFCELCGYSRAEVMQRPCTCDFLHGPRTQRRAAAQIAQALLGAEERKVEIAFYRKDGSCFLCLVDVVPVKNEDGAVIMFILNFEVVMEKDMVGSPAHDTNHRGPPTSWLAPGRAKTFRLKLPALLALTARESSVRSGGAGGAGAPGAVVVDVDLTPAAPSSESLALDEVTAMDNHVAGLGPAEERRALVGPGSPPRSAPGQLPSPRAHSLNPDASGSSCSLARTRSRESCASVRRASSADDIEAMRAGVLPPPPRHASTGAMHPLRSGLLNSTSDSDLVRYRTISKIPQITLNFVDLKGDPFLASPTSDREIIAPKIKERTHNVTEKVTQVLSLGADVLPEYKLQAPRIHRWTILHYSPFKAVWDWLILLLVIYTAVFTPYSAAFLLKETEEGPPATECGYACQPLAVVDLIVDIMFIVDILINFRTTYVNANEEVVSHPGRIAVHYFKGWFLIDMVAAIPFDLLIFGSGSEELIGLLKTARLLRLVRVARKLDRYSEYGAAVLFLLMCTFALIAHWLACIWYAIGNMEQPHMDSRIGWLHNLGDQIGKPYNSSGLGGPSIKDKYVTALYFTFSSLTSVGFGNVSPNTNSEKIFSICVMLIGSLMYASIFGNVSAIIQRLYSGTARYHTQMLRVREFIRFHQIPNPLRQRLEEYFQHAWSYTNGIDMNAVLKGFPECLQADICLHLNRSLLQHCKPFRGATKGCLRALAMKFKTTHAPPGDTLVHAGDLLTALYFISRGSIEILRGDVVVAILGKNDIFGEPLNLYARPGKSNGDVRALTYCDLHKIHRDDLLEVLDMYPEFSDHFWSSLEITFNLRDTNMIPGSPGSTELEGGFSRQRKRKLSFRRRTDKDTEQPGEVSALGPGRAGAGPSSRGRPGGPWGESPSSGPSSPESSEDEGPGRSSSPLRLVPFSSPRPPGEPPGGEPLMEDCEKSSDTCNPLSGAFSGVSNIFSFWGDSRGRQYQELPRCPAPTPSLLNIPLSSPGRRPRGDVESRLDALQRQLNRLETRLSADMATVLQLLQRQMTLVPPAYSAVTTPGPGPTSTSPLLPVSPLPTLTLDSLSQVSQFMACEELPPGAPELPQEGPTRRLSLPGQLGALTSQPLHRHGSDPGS

Row | Structure (SMILES) | hERG current change (%, negative = inhibition) at 1uM [%]
1 | CCC(=O)NC(=S)Nc1ccc(OC)cc1OC | 11.5
2 | COc1ccccc1Nc1nc(N)nc(CCl)n1 | 9.66
3 | COc1ccccc1NC(=O)N1CCN(C(=O)c2ccco2)CC1 | 8.7
4 | COC(=O)C1=C(C)N(c2ccc(F)cc2)/C(=C/c2ccc(O)cc2)C1=O | 22.4
5 | COc1ccccc1-n1cnc2cc(C(=O)NC3CCCC3)ccc21 | -20.9
6 | COC(=O)C1CN(C(=O)COc2ccc(Cl)c(C)c2)c2ccccc2O1 (stereo not drawn) | 2.74
7 | CCCN(Cc1cc2cccc(C)c2[nH]c1=O)C(=O)c1cccc(OC)c1 | -20.2
8 | O=C(c1ccc(S(=O)(=O)N2CCCC2)cc1)N(c1ccccc1)C1C=CS(=O)(=O)C1 (stereo not drawn) | 3.87
9 | O=C(C(=O)N1CCN(c2ccc(F)cc2)CC1)c1cn(CC(=O)N2CCOCC2)c2ccccc12 | 8.97
10 | Nc1c2c(nc3ccccc13)CCCC2=O.O=C(O)CCC(=O)O | 2.69
11 | O=C(COC(=O)c1cc(S(=O)(=O)N2CCCCC2)ccc1N1CCOCC1)c1ccccc1 | 14.4
12 | O=C1c2ccccc2C(=O)c2c1ncn2-c1ccccc1 | -1.06
13 | Cc1cc(C)nc(N2CCCC(C(=O)NCc3ccccc3F)C2)n1 (stereo not drawn) | 10.8
14 | COC(=O)Nc1ccc(S(=O)(=O)Nc2cccc3ccccc23)cc1 | 8.94
15 | COc1ccc(NC(=O)c2cccnc2N2CCCC2)cc1 | 0.501
16 | O=C1c2ccccc2C(=O)N1/N=C/c1ccc(O)c(O)c1 | 13.9
17 | CCOC(=O)c1ccc(N2CN=C3SCC(=O)N3C2)cc1 | 5.05
18 | COc1ccc(C2C3=C(CC(C)(C)CC3=O)Nc3c2c(=O)[nH]c(=O)n3Cc2ccccc2)cc1OC (stereo not drawn) | 6.07
19 | CC(NC(=O)COc1ccc(/C=N/NC(=O)CO)cc1)c1ccccc1 (stereo not drawn) | 4.94
20 | CC12CCC(C(=O)N3CCc4ccccc43)(CC1=O)C2(C)C (stereo not drawn) | 6.9
21 | Cc1cc2cc(CCNC(=O)c3cccs3)c(=O)[nH]c2cc1C | 3.28
22 | Cc1ccc(NC(=O)OCc2cc(-c3ccccc3)on2)cc1 | 3.74

Row | Structure (SMILES) | hERG current change (%, negative = inhibition) at 1uM [%]
23 | Cc1nnc(SC(C)C(=O)Nc2ccc(S(=O)(=O)N3CCCCC3)cc2)s1 (stereo not drawn) | 5.99
24 | CCOC(=O)CSc1nnc(N)s1 | 13.4
25 | O=C(CSc1nc2ccccc2c(=O)n1-c1ccccc1)NC(=O)CN1CCCC1=O | 13.8
26 | COC(=O)c1ccc(OC(=O)CCN2c3ccccc3Sc3ccccc32)cc1 | 11.4
27 | Cc1ccc(NC(=O)C(C)Sc2nc3nc(C)cc(C)n3n2)cc1 (stereo not drawn) | -2.41
28 | C/C(CC(=O)N1CCN(C=O)CC1)=N\NC(=O)c1cc2ccccc2cc1O | 4.71
29 | Cc1ccc(NC(=O)/C=C/C(=O)O)c(NC(=O)c2ccccc2)c1 | 10.5
30 | CCCCC1(c2ccc(F)cc2)NC(=O)N(CC(=O)N2CCN(C(=O)c3ccco3)CC2)C1=O (stereo not drawn) | -13.9
31 | Cc1ccc2[nH]c(=O)c(CN(Cc3ccco3)C(=O)CN3CCCC(C)C3)cc2c1 (stereo not drawn) | -18.9
32 | CCOC(=O)C1CCN(C(=O)CN(c2cc(Cl)ccc2OC)S(=O)(=O)c2ccccc2)CC1 | -1.05
33 | COc1cccc(C=O)c1OC(=O)N1CCOCC1 | 17.8
34 | CCN(CC)c1ccc(NC(=O)c2cccc(C)c2OC)c(C)c1 | 8.91
35 | COCCCN(C(=O)c1cccnc1SC)c1c(N)n(Cc2ccccc2)c(=O)[nH]c1=O | -6.78
36 | O=C1COc2ccc(C(=O)COC(=O)COc3ccccc3[N+](=O)[O-])cc2N1 | 10.9
37 | COc1ccc(-c2cc3ccccc3n2CC(O)CNC(CO)(CO)CO)cc1 (stereo not drawn) | 6.61
38 | O=C(c1ccco1)N1CCN(c2ccc(N3CCCCC3)nn2)CC1 | -3.9
39 | Cn1c(=O)c2c(nc(Sc3ncnn3CC(=O)NC(C)(C)C)n2C)n(C)c1=O | 20.5
40 | COc1ccc(Nc2c([N+](=O)[O-])ccc3c2=NC2(CCCCC2)N=3)cc1 | 10.8
41 | NC(=S)c1cn(C2OC(CO)C(O)C2O)c2ncnc(N)c12 (stereo not drawn) | 20
42 | Nc1c(C(=O)NCCc2ccccc2)nnn1Cc1ccccc1 | 1.46
43 | Nc1ccc2cn[nH]c2c1 | 18.8
44 | CS(=O)(=O)c1ccc(Cl)c(NC(=O)Cc2ccccc2F)c1 | 13.5

Row | Structure (SMILES) | hERG current change (%, negative = inhibition) at 1uM [%]
45 | O=C(NCCCN1CCN(Cc2ccccc2)CC1)C1CCN(c2nnc(-n3cccc3)s2)CC1 | -10.7
46 | CC/C(CC(c1ccccc1)c1c(O)c2ccccc2oc1=O)=N\NC(N)=S (stereo not drawn) | 10.5
47 | COc1ccccc1Nc1c([N+](=O)[O-])cncc1[N+](=O)[O-] | 10.6
48 | CCn1c(CNC(=O)COc2ccc(C(C)C)cc2)nnc1SCC(=O)Nc1ccc(F)cc1 | -27.9
49 | O=C(Cn1cnc2ccccc21)Nc1ccc(C(=O)O)cc1.O=C(O)C(=O)O | -52.9
50 | CCN=C1NN=C(c2ccc(C)cc2)CS1 | 11
51 | O=[N+]([O-])c1ccc(NC(=S)N2CCN(S(=O)(=O)c3ccccc3)CC2)cc1 | 7.5
52 | CCNC(=O)COC(=O)c1sccc1C | 6.81
53 | Cc1ccc(C)c(N(CC(=O)NC2CCCC2)C(=O)c2cc3cc4cccc(C)c4nc3s2)c1 | 10.6
54 | CCOC(=O)N1CCN(C(=O)C2CCN(S(=O)(=O)N3CCCC3)CC2)CC1 | 10.6
55 | COC(=O)c1sccc1Oc1ccc(Cl)cc1N1C(=O)CCC1=O | 8.78
56 | Cc1nnc(SCC(=O)N/N=C/c2cn(-c3ccccc3)nc2-c2ccc(F)cc2)n1-c1ccccc1 | 10.3
57 | COC(=O)c1cccc(NS(=O)(=O)c2ccc(NC(C)=O)cc2)c1C | 1.99
58 | C=CCn1c(NCCOC)nc2c1c(=O)n(C)c(=O)n2C | 8.26
59 | Cc1cc(NS(=O)(=O)c2ccc(NC(=O)c3c(F)c(F)c(F)c(F)c3F)cc2)nc(C)n1 | 2.59
60 | Cc1nn(Cc2ccc(C(=O)Nc3ccccc3F)cc2)c(C)c1Cl | 4.93
61 | COc1ccc(S(=O)(=O)N2CCCCC2)cc1NC(=O)CCCNC(=O)c1ccc(Cl)cc1 | 3.95
62 | CCNC(=S)N/N=C/c1cccs1 | -0.224
63 | O=C1CC(c2ccccc2)n2nc(NC(=O)c3cccs3)nc2N1 (stereo not drawn) | 6.55
64 | Cc1[nH]c2ccccc2c1C(=O)COC(=O)c1nccnc1N | 3.32
65 | COC(=O)c1ccc(Cl)c(NC(=O)CN2CCC(C)CC2)c1 | 4.29
66 | Cc1cc(C=C2C(=O)N(C)C(=S)N(C)C2=O)c(C)n1C1CCCC1 | 15.3

Row | Structure (SMILES) | hERG current change (%, negative = inhibition) at 1uM [%]
67 | C=CCn1c(SCC(=O)NC2CC2)nc2ccccc2c1=O | 8.88
68 | COc1ccc(-c2c(=O)n(OCc3nc4ccccc4[nH]3)c3ccccc3[n+]2[O-])cc1 | 11.8
69 | Cc1ccc(NC(=O)COC(=O)c2cc(-c3cccs3)nn2-c2ccccc2)cc1[N+](=O)[O-] | 5.16
70 | CCOc1ccc(NC(=O)c2ccc3c(c2)CCN3S(C)(=O)=O)cc1 | 4.9
71 | COc1ccc(-c2nnc(SCC(=O)N/N=C/c3ccccc3C(=O)O)n2-c2ccc(Cl)cc2)cc1 | 5.3
72 | CCOC(=O)c1c(NC(=S)NCCc2ccccc2)sc2c1CC(C(C)C)OC2 (stereo not drawn) | 13.2
73 | O=C(Nc1ccccc1C(F)(F)F)N1CCCC(O)C1 (stereo not drawn) | 14.3
74 | CCN(CC)S(=O)(=O)c1cc(NC(=O)C(C)N2CCc3ccccc32)ccc1C (stereo not drawn) | 9.99
75 | Cc1[nH]nc(N=CC2=C(O)CC(c3ccco3)CC2=O)c1-c1ccc(Cl)cc1 (stereo not drawn) | -4.69
76 | CC(NC(=O)Cn1cnnn1)C12CC3CC(CC(C3)C1)C2 (stereo not drawn) | 1.62
77 | COC(=O)CNC(=O)COC(=O)Cc1ccc(Cl)cc1 | 9.85
78 | COc1cccc(CC2(CO)CCCN(CC3=Cc4cc(OC)ccc4OC3)C2)c1 (stereo not drawn) | 10.7
79 | CN(C)CC1CCCCC1OC(=O)c1ccc(Br)cc1.Cl (stereo not drawn) | 4.55
80 | O=c1cc(COc2ccccc2[N+](=O)[O-])nc2sccn12 | 1.54
81 | COC(=O)c1ccc2c(CCO)c[nH]c2c1 | 7.07
82 | COc1ccc(-c2ccc3oc(-c4ccc(OC)cc4)c(-c4ccc(OC)cc4)c3c2)cc1 | 21.7
83 | Cc1ccc(Cn2nc(C)c(NC(=O)c3nn(C)cc3Cl)c2C)cc1 | 11
84 | O=C(O)CNS(=O)(=O)c1ccc(C2CCCCC2)cc1 | 3.45
85 | CC(C)C(NC(=O)c1ccc(C(C)(C)C)cc1)C(=O)O (stereo not drawn) | -1.71
86 | Cc1c(C(=O)Nc2ccccc2)oc2c1C(=O)CC(C)(C)C2 | 3.05
87 | COc1ccc(N(C(=O)c2ccco2)C(C(=O)NC2CCCC2)c2cc(OC)c(OC)c(OC)c2)cc1 (stereo not drawn) | 13.1
